Test results: patent US20080138836A1, “KINASE AND UBIQUINATION ASSAYS” (INVITROGEN CORPORATION, priority 2006, published 2008)
Square brackets hold non-standard residues; d marks the D form. Ends that are not written are not given here. pS = N[C@@H](COP(=O)(O)O)C(=O)O

Molecular target: Tb-chelate labeled anti-pSer133 antibody
Test: TR-RET titration of the tracer against the Tb-labeled antibody

fold change in TR-RET value between free and bound forms: 32 fold
B1: Tracer 4: …(pS)YRK-Fluorescein (peptide)
peptide: LRREILSRRP[pS]YRK-Fluorescein
